# Test results as given in PubChem BioAssay AID1745845 (National Center for Advancing Translational Sciences (NCATS), 2022).
# “And” between values parts separate entries of the source, which are not always exact repeats. Equal entries are not always repeated. About 2,600 (0.72%) of roughly 360,000 compounds were called active. The shares of active, inactive and inconclusive entries below differ from those in the screen. Calls follow the shape of the dose curve; as a rule, active = well fitted inhibition curve with a large enough effect; inconclusive = small, poorly fitted or top-dose-only effect; inactive = no such curve, though single readings can be large or run the other way. Where the call is inconclusive, the potency comes from a doubtful curve fit.
# Test: Primary qHTS for Inhibitors of ATXN expression; also: nearly all actives have a fitted effect of over 55% in size
# Conditions: HEK-293 ATXN2-luciferase reporter, luminescence, 24 h; activity change, negative = inhibition: at 57 µM (top of the series)
# How it was run: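 ATXN2-luciferase reporter cells (luciferase flanked by upstream and downstream ATXN2 gene portions) were treated 24 h at 37 °C with compounds at up to 57 uM. SteadyGlo luminescence gave expression; GF-AFC fluorescence gave viability.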
# % is scaled to controls: 0 for no effect and ±100 for the full control effect; potency is read from the fitted curve at half-maximal effect; tags tell the direction and shape of the fitted curve.
SMILES,"activity change, negative = inhibition",Potency
CCN(CC)S(=O)(=O)c1ccc(C(=O)Nc2nnc(CSC)o2)cc1,inactive: 5.56%,
CCN(CC)CCOc1ccc(C=NNc2nc3c([nH]2)c(=O)n(C)c(=O)n3C)cc1,inactive: 5.7%,
O=C(NCCCN1CCOCC1)c1ccc(-n2nc(C(F)(F)F)cc2-c2cccs2)cc1,,"inconclusive: 12.6 µM [inhibitor, partial curve, poor fit]"
Cc1cc(C)nc(-n2nc(C)c3c2NC(=O)CC3c2ccccc2OC(C)C)n1 (stereo not given),,"inconclusive: 25.1 µM [inhibitor, single point]"
O=C1N[C@@H](c2ccccc2)COC(=O)[C@H](Cc2ccc(F)cc2)C/C=C\C[C@@H]1CC(=O)N(CCO)Cc1ccccc1,,"inconclusive: 28.2 µM [inhibitor, single point]"
CCN(CC)S(=O)(=O)c1ccc(C(=O)NC2CC(=O)N(c3ccc4c(c3)OCCO4)C2)cc1 (stereo not given),inactive: 4.67%,
O=C(CC(C(=O)O)c1ccc(F)cc1)c1ccc(Cl)cc1 (stereo not given),inactive: -12.8%,
Cc1cc2c(cc1C)CSC(c1c(O)ccc3ccccc13)SC2,,"inconclusive: 39.8 µM [inhibitor, single point]"
O=c1[nH]c2ccc(Br)cc2o1,inactive: 6.47%,
Cc1ccc(S(=O)(=O)N(CC(=O)Nc2ccccc2-c2ccccc2)c2ccc(C)cc2C)cc1,inactive: -10.5%,
COc1c(CC=C(C)C)cc(C2CC(=O)c3c(O)cc(O)cc3O2)cc1CC=C(C)C (stereo not given),,"inconclusive: 39.8 µM [inhibitor, single point]"
Cc1cc(NC(=O)COC(=O)/C=C/c2ccc(C)o2)no1,,"inconclusive: 28.2 µM [inhibitor, single point]"
COc1ccc(-c2cc(NCc3ccc(C)cc3)n3cnnc3n2)cc1,,"inconclusive: 25.1 µM [inhibitor, partial curve, poor fit]"
O=c1oc2c3c4c(cc2c2c1CCC2)OCCN4CCC3,,"inconclusive: 8.91 µM [inhibitor, partial curve, poor fit]"
CCN1C(=O)c2ccccc2Sc2ccc(NC(=O)Nc3ccc(Br)c(C)c3)cc21,,"inconclusive: 39.8 µM [inhibitor, single point]"
COc1ccc(Nc2nc(N)nc(CSc3nc4ccccc4s3)n2)cc1,,"inconclusive: 39.8 µM [inhibitor, single point]"
Oc1c(C(Nc2cccc(C(F)(F)F)c2)c2cccnc2)ccc2cccnc12 (stereo not given),,"inconclusive: 39.8 µM [inhibitor, single point]"
COC(=O)C(=O)C/C(=N/Nc1ncnc2ccccc12)c1ccc(Cl)cc1,inactive: 26.1%,
CN1C[C@@H]2[C@@H]3C(=O)N(Cc4ccccc4)C(=O)[C@@H]3[C@](Cc3ccccc3)(C1=O)N2C(=O)c1ccc(C(C)(C)C)cc1,,"inconclusive: 28.2 µM [inhibitor, single point]"
CCCn1nc(-c2nnc(-c3ccc(C)c(C)c3)o2)c2ccccc2c1=O,inactive: -2.11%,
CN(C)S(=O)(=O)c1ccc(NC(=O)N2CCN(c3cccc(C(F)(F)F)c3)CC2)cc1,,"inconclusive: 12.6 µM [inhibitor, partial curve, poor fit]"
COc1cnc(-c2ccccn2)nc1Sc1ccccc1Cl,,"inconclusive: 35.5 µM [inhibitor, single point]"

SMILES,"activity change, negative = inhibition",Potency
CC(C)C[C@H]1CN([C@@H](Cc2ccc(O)cc2)CN2CCC[C@@H]2CN2C(=S)NC[C@@H]2Cc2ccccc2)C(=S)N1CC1CCCCCC1,,"inconclusive: 31.6 µM [inhibitor, single point]"
CC(C)OCCCNC(=O)Cc1ccc(NC(=O)N2CCCCc3ccccc32)cc1,inactive: 7.69%,
CCOc1ccccc1N(C)C(=O)c1cc2c(s1)-c1ccccc1OC2,,"inconclusive: 39.8 µM [inhibitor, single point]"
O=C(NC(=S)N(Cc1ccccc1)Cc1ccccc1)c1ccccc1F,inactive: -25.1%,
Cc1ccc2nc(N3CCN(C=O)CC3)nc(-c3ccccc3)c2c1,,"inconclusive: 25.1 µM [inhibitor, partial curve, poor fit]"
O=C(Cc1ccc(Cl)cc1)NNC1CC(=O)N(c2ccc3ccccc3c2)C1=O (stereo not given),,"inconclusive: 31.6 µM [inhibitor, partial curve, poor fit]"
Cc1ccccc1C(=O)Nc1cc2c(cc1N1CCCCC1)n(C)c(=O)n2C,,"inconclusive: 35.5 µM [inhibitor, single point]"
CCN(CC(=O)Nc1ccc(NC(C)=O)cc1)C(=O)c1ccc(COc2ccc(C(C)(C)C)cc2)cc1,,"inconclusive: 15.8 µM [inhibitor, partial curve, poor fit]"
CC(C)Cc1ccc(-c2cc3nc(NCc4cccc(Cl)c4)ccn3n2)cc1,inactive: 8.54%,
COc1cccc(Nc2cc(C)nc3ccccc23)c1,,"inconclusive: 31.6 µM [inhibitor, partial curve, poor fit]"
O=C(C1=C[C@H](c2csc3ccccc23)C[C@H](OCCCCO)O1)N1CCN(Cc2ccc3c(c2)OCO3)CC1,,"inconclusive: 31.6 µM [inhibitor, single point]"
Cc1ccc2nsnc2c1NC(=O)c1ccc(-c2cc(Cl)ccc2Cl)o1,,"inconclusive: 12.6 µM [inhibitor, partial curve]"
CC(C)(C)c1cccc(C2(O)C(=O)c3ccccc3C2=O)c1O,inactive: 4.1%,
Cn1c(=O)cc(SCC(=O)NCCC2=CCCCC2)c2ccc(Cl)cc21,,"inconclusive: 39.8 µM [inhibitor, single point]"
COc1ccc(Cl)cc1NC(=O)c1cc(-c2cc(C)ccc2O)n[nH]1,inactive: 2.97%,
CCN(CC)CCCC(C)Nc1ccnc2cc(Cl)ccc12 (stereo not given),,"inconclusive: 14.1 µM [inhibitor, partial curve, poor fit] and inconclusive: 10.9 µM [inhibitor, full curve]"
Cc1nc2c(-c3ccc(F)cc3)c(C)nn2c(C)c1CCC(=O)NC(C)CCc1ccco1 (stereo not given),,"inconclusive: 39.8 µM [inhibitor, single point]"
Cc1ccc(Cl)cc1N1CCN(C(=O)Cn2ncn3cccc3c2=O)CC1,,"inconclusive: 21.2 µM [inhibitor, partial curve, poor fit]"
COc1cccc(NC(=O)CN(C)C(=O)COc2ccccc2Cc2ccccc2)c1,,"inconclusive: 39.8 µM [inhibitor, single point]"
O=C1NC(Nc2nccs2)(C(F)(F)F)C(=O)N1CCc1ccccc1 (stereo not given),inactive: -3.96%,
O=c1[nH]sc2cc(Cl)ccc12,,"inconclusive: 35.5 µM [inhibitor, partial curve]"
COc1ccc(NC(=O)CN2CCN(Cc3ccccc3Cl)S2(=O)=O)cc1Cl,,"inconclusive: 31.6 µM [inhibitor, partial curve, poor fit]"

SMILES,"activity change, negative = inhibition",Potency
Cc1ccc2[nH]c(=O)c(CN(CCCN(C)C)C(=O)Nc3cccc(Cl)c3)cc2c1,,active: 15.8 µM
COc1ccc(-c2c(C)nn3c(N4CCCCCC4)cc(C)nc23)cc1OC,,"inconclusive: 25.1 µM [inhibitor, single point]"
COc1ccc(CCNC(=O)c2ccc3c(c2)N(Cc2ccccc2)CCS3)cc1OC,,"inconclusive: 25.1 µM [inhibitor, partial curve, poor fit]"
Cc1ccc(C2C3CSCC=C3C(C#N)=C(N)C2(C#N)C#N)cc1 (stereo not given),,"inconclusive: 31.6 µM [inhibitor, single point]"
CCOc1ccc(NCc2cccn2-c2nnc(N3CCC(C(=O)NCCCN4CC(C)CC(C)C4)CC3)s2)cc1 (stereo not given),,active: 31.6 µM
CC(C)C[C@@H](CN1CCC[C@@H]1CN1C(=O)C(=O)NC[C@@H]1Cc1ccccc1)N1C[C@H](Cc2ccccc2)N(CC2CCCCC2)C(=O)C1=O,,"inconclusive: 39.8 µM [inhibitor, single point]"
Cc1ccc(S(=O)(=O)N2CCN(CCNC(=O)C(=O)Nc3ccc(F)cc3)CC2)cc1,inactive: -13.8%,
O=C(NCCc1csc(-c2ccc(C(F)(F)F)cc2)n1)c1cccs1,inactive: -22.9%,
Cn1cc(-c2cnn3c(N)c(Br)c([C@H]4CCCNC4)nc23)cn1,,active: 0.385 µM
COc1cc(-c2ccc3sc(-c4ccsc4)c(C#CCO)c3c2)cc(OC)c1OC,,active: 25.1 µM
OC1(c2ccc(Cl)cc2)CCN(Cc2cn[nH]c2-c2ccc(F)cc2)CC1,inactive: -28.5%,
COc1ccccc1CNC(=O)c1c(N)n(CCCN2CCOCC2)c2nc3ccccc3nc12,,"inconclusive: 31.6 µM [inhibitor, single point]"
CCc1nc2c(OCc3ccc(Cl)cc3Cl)cccn2c1N(C)C(C)=O,,active: 17.8 µM
CC1(Cc2ccccc2C#N)C(=O)Nc2ccc(-c3ccc4[nH]ccc4c3)cc21 (stereo not given),,"inconclusive: 35.5 µM [inhibitor, single point]"
CC(=O)Nc1cccc(-c2ccnc3c2CC(C)(C(=O)Nc2ccc(C(C)C)cc2)O3)c1 (stereo not given),,"inconclusive: 39.8 µM [inhibitor, single point]"
CCOc1ccc(C(=O)NCC(c2cccs2)S(=O)(=O)c2ccccc2)cc1 (stereo not given),inactive: -16%,
CCOc1ccc(C(=O)NCCSc2c(C)[nH]c3ccccc23)cc1OCC,inactive: -37.6%,
Cn1cc(C(=O)C(=O)N2CCCC2)c2ccccc21,,"inconclusive: 6.7 µM [inhibitor, partial curve, poor fit]"
O=C(CCl)N1CCN(S(=O)(=O)Cc2ccccc2)CC1,,"inconclusive: 35.5 µM [inhibitor, single point]"
CCN(CC)c1ccc(/C=N/NC(=O)c2cccc(S(=O)(=O)N3CCOCC3)c2)c(O)c1,,active: 1.89 µM
CCOc1ccc(S(=O)(=O)N(CC(=O)NCc2cccnc2)c2ccc(C)cc2)cc1,inactive: -13%,
